The supplement of paper PMC6089552
Hit rate of the full screen: of about 3,200 compounds, about 300 (9.4%) showed activity. Only a part is listed here, and it is no random draw.

Test system: A673/TR/shEF
Assay: cell viability (LOESS-normalised, relative to median of negative controls) (log2 ratio); higher = more viable cells (less compound effect), active = hit call of the paper (over 3 MAD below the median)
Conditions: treatment time: 72 h
Outline: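 A673/TR/shEF Ewing sarcoma cells (1,500 per well, 384-well plates) were grown with or without doxycycline to induce EWS-FLI1 shRNA knockdown, starting 24 h before compounds. Library compounds at two or more concentrations, with DMSO controls, were added for three days. Cell viability was read by CellTiter-Glo luminescence on an Envision reader, then LOESS-corrected per plate, divided by the median of negative controls and log2-transformed. Hits were wells at least three median absolute deviations from the median of all screened wells.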

[1] = 0.25 µM, library screen: screen1, EWS-FLI1 expression: high (no doxycycline)
[2] = 0.25 µM, library screen: screen1, EWS-FLI1 expression: low (doxycycline-induced shRNA knockdown)
[3] = 2.5 µM, library screen: screen1, EWS-FLI1 expression: high (no doxycycline)
[4] = 2.5 µM, library screen: screen1, EWS-FLI1 expression: low (doxycycline-induced shRNA knockdown)
[5] = 0.25 µM, library screen: screen2, EWS-FLI1 expression: high (no doxycycline)
[6] = 0.25 µM, library screen: screen2, EWS-FLI1 expression: low (doxycycline-induced shRNA knockdown)
[7] = 2.5 µM, library screen: screen2, EWS-FLI1 expression: high (no doxycycline)
[8] = 2.5 µM, library screen: screen2, EWS-FLI1 expression: low (doxycycline-induced shRNA knockdown)

Measured: cell viability (log2)

CN1C(=O)CC[C@H]1c1cccnc1
inactive: [1] 0.102 | [2] 0.0122 | [3] 0.0954 | [4] -0.0438

O=C(/C=C/c1ccc(O)cc1O)c1ccccc1
inactive: [1] 0.0477 | [2] 0.0515 | [3] 0.136 | [4] 0.0296

Cc1cc(O)c(C=O)c(O)c1C(=O)O
inactive: [1] 0.0431 | [2] 0.0767 | [3] 0.0238 | [4] 0.158

CC[C@@H]1C(=O)OC[C@@H]1Cc1cncn1C
inactive: [1] 0.0873 | [2] 0.0148 | [5] 0.145 | [6] 0.0737 | [3] 0.0768 | [4] 0.179 | [7] 0.0821 | [8] 0.0794

COc1cc(OC)c2c(c1Cl)O[C@@]1(C(=O)CC(=O)C[C@H]1C)C2=O
inactive: [1] 0.0893 | [2] 0.0968 | [3] 0.098 | [4] 0.197

CCn1c(=O)[nH]c2cc(Cl)c(Cl)cc21
inactive: [5] 0.155 | [6] 0.0458 | [7] 0.183 | [8] 0.0928

C[C@H](CCC(=O)O)[C@H]1CC[C@H]2[C@@H]3[C@@H](O)C[C@@H]4C[C@H](O)CC[C@]4(C)[C@H]3CC[C@]12C
inactive: 0.103 µM, library screen: screen3, EWS-FLI1 expression: high (no doxycycline) 0.148 | 0.103 µM, library screen: screen3, EWS-FLI1 expression: low (doxycycline-induced shRNA knockdown) 0.0907 | [1] 0.129 | [2] 0.102 | 0.308 µM, library screen: screen3, EWS-FLI1 expression: high (no doxycycline) 0.121 | 0.308 µM, library screen: screen3, EWS-FLI1 expression: low (doxycycline-induced shRNA knockdown) 0.0979 | 0.926 µM, library screen: screen3, EWS-FLI1 expression: high (no doxycycline) 0.0576 | 0.926 µM, library screen: screen3, EWS-FLI1 expression: low (doxycycline-induced shRNA knockdown) 0.0826 | [3] 0.151 | [4] 0.105 | 2.8 µM, library screen: screen3, EWS-FLI1 expression: high (no doxycycline) 0.0823 | 2.8 µM, library screen: screen3, EWS-FLI1 expression: low (doxycycline-induced shRNA knockdown) 0.0649 | 8.3 µM, library screen: screen3, EWS-FLI1 expression: high (no doxycycline) 0.0654 | 8.3 µM, library screen: screen3, EWS-FLI1 expression: low (doxycycline-induced shRNA knockdown) 0.0967 | 25 µM, library screen: screen3, EWS-FLI1 expression: high (no doxycycline) 0.0615 | 25 µM, library screen: screen3, EWS-FLI1 expression: low (doxycycline-induced shRNA knockdown) 0.137

COC(=O)c1cc(OC)c(=O)c2c(OC)c(OC)ccc2c1
active: [1] -0.0869

CC(=O)OCCC(C)CCC=C(C)C (configuration not stated)
inactive: [1] 0.082 | [2] -0.0096 | [3] 0.0689 | [4] 0.105

CC(=O)O[C@@H]1CC[C@@]2(C)[C@H](CC[C@@H]3[C@@H]2C[C@H](OC(C)=O)[C@]2(C)[C@@H](C(C)=O)CC[C@@H]32)C1
inactive: [1] 0.135 | [2] 0.117 | [3] 0.0696 | [4] 0.102

N[C@@H](CS(=O)O)C(=O)O
inactive: [5] 0.258 | [6] 0.0997 | [7] 0.124 | [8] 0.0688
